Data on four proteins can be found in PMC10036635, “FTD-tau S320F mutation stabilizes local structure and allosterically promotes amyloid motif-dependent aggregation” (Nature Communications, 2023).

Series [1] concerns the molecule itself. Kind of series: ThT fluorescence aggregation assay + negative-stain TEM; self-assembly of tauRD into fibrils at 100 µM without inducer; 1x PBS, 2 mM TCEP, 25 µM ThT.
Series [2] concerns the molecule itself. Nature of the series: ThT fluorescence aggregation assay + negative-stain TEM; self-assembly of tauRD into fibrils at 25 µM without inducer; 1x PBS, 2 mM TCEP, 25 µM ThT, 37 °C; TEM of the endpoint.
Series [3] concerns the molecule itself. Kind of series: ThT fluorescence aggregation assay + negative-stain TEM; self-assembly of tauRD into fibrils at 62.5 µM without inducer; 1x PBS, 2 mM TCEP, 25 µM ThT, 37 °C, 96 h; TEM of the endpoint.

B1: S320I tauRD ([…]) (domain or fragment)
chain: not shown
notes: microtubule-associated protein tau, human, repeat domain, […]; numbers count on: 2N4R tau ([…]); mutation chosen by Rosetta design on the CBD fibril structure; source: E. coli BL21-Gold (DE3), purified (boiling, HiTrap SP HP, Superdex 75)
For the protein B1, in series [1], the binding result is reported as “binds”.

B2: S320V tauRD ([…]) (domain or fragment)
chain: not shown
notes: microtubule-associated protein tau, human, repeat domain, […]; numbers count on: 2N4R tau ([…]); mutation chosen by Rosetta design on the PiD fibril structure; source: E. coli BL21-Gold (DE3), purified (boiling, HiTrap SP HP, Superdex 75)
For B2, in series [2], the binding result is recorded as “binds”.

B3: S320F tauRD ([…]) (domain or fragment)
chain: not shown
notes: microtubule-associated protein tau, human, repeat domain, […], FTD-tau mutation S320F; numbers count on: 2N4R tau ([…]); pet28b backbone without the C-terminal His-tag; also called tauRD S320F; source: E. coli BL21-Gold (DE3), purified (boiling, HiTrap SP HP, Superdex 75)
B3: the binding result in series [3] is “binds”.

B4: S320I_I328V tauRD ([…]) (domain or fragment)
chain: not shown
notes: microtubule-associated protein tau, human, repeat domain, […]; numbers count on: 2N4R tau ([…]); mutations chosen by Rosetta design on the CBD fibril structure; source: E. coli BL21-Gold (DE3), purified (boiling, HiTrap SP HP, Superdex 75)
Turning to B4, in series [1], the binding result was “binds”.
